# The BET-seq Pho4 binding data (Le et al. 2018)
# Some of the results follow. Values were computed here from the reads of four pooled replicates and scatter widely.
# Target: T1, Pho4 (S. cerevisiae) (UniProt P07270)
# T1 sequence: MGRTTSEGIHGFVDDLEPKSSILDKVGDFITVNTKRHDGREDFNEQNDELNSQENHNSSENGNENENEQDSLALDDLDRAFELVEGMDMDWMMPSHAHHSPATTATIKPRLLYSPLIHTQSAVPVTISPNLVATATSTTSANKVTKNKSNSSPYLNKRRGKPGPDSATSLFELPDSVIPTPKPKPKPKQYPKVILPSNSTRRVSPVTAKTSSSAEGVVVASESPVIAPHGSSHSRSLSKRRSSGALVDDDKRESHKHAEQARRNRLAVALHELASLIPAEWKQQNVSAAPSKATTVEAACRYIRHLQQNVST
# Experiment: relative binding free energy (BET-seq); higher = weaker binding
# Settings: reference: library average
row,Sequence,relative binding free energy
1,GGGTTCACGTGGACAG,0.34 kcal/mol
2,GTAGTCACGTGATATG,0.23 kcal/mol
3,AGTTTCACGTGCTTGA,0.17 kcal/mol
4,TGGGGCACGTGTCGGA,-0.08 kcal/mol
5,TATGACACGTGTAAGT,0.1 kcal/mol
6,AAAGACACGTGGGGGT,-0.16 kcal/mol
7,TATCTCACGTGGCTTG,0.21 kcal/mol
8,GTTGGCACGTGATAAG,0.06 kcal/mol
9,AATTACACGTGTTTGT,0.01 kcal/mol
10,GGGTGCACGTGAGCCT,0.34 kcal/mol
11,TAGGCCACGTGCTGGG,-0.18 kcal/mol
12,TAGCGCACGTGACTGG,0.13 kcal/mol
13,AAAAGCACGTGTTTTT,-0.19 kcal/mol
14,GTTGGCACGTGTCTGA,0.11 kcal/mol
15,TTAGTCACGTGCGTCT,0.12 kcal/mol
16,GTTTACACGTGGGCTT,0.05 kcal/mol
17,TACTTCACGTGGTTAT,0.23 kcal/mol
18,TCGCTCACGTGGGTGG,0.08 kcal/mol
19,AGACGCACGTGGGGTG,-0.21 kcal/mol
20,TTAATCACGTGGAGTT,0.19 kcal/mol
21,AGAAGCACGTGGTTGT,-0.18 kcal/mol

row,Sequence,relative binding free energy
1,AGGTGCACGTGAAAGT,0.21 kcal/mol
2,AAGATCACGTGAGAGG,0.36 kcal/mol
3,GTGTTCACGTGGAGCG,0.25 kcal/mol
4,TTGGACACGTGTGAAT,0.19 kcal/mol
5,GTCAGCACGTGTGGCG,0.07 kcal/mol
6,GTGGTCACGTGACTGG,0.13 kcal/mol
7,TGGAGCACGTGGCTGT,-0.11 kcal/mol
8,GTTAACACGTGTCATT,-0.01 kcal/mol
9,TATAACACGTGGGTTC,-0.05 kcal/mol
10,AGGCGCACGTGTTTTG,-0.18 kcal/mol
11,CGGTTCACGTGGCTAG,0.32 kcal/mol
12,GTGAACACGTGAGTTA,0.23 kcal/mol
13,TGTTTCACGTGCGGGG,0.2 kcal/mol
14,TGGATCACGTGAATTA,0.29 kcal/mol
15,TAATACACGTGGGGAG,-0.14 kcal/mol
16,CGCTTCACGTGCGGGG,0.21 kcal/mol
17,TCGAACACGTGATGGG,0.12 kcal/mol
18,GCTGACACGTGGTAGG,0.11 kcal/mol
19,AGTCGCACGTGCTGGG,-0.2 kcal/mol
20,GGTTGCACGTGAAGAG,0.16 kcal/mol
21,TGGTACACGTGTTTAA,0.02 kcal/mol

row,Sequence,relative binding free energy
1,CATTGCACGTGGGGTA,-0.3 kcal/mol
2,GTCAGCACGTGTGGTC,0.14 kcal/mol
3,GATCGCACGTGTCGGG,0.07 kcal/mol
4,CATGGCACGTGGGTAG,-0.29 kcal/mol
5,TGTTACACGTGGAGAG,-0.01 kcal/mol
6,CAGTGCACGTGGGGTC,-0.13 kcal/mol
7,AATTGCACGTGGAGTG,0.02 kcal/mol
8,AGTGGCACGTGTCTAT,-0.02 kcal/mol
9,TACGGCACGTGTTGGA,0.02 kcal/mol
10,GGGTTCACGTGGGTAC,0.14 kcal/mol
11,CGTATCACGTGGGGCA,0.02 kcal/mol
12,CTTTTCACGTGATGAT,0.22 kcal/mol
13,GATGCCACGTGGTCGG,-0.02 kcal/mol
14,ATGCTCACGTGAGGTA,0.24 kcal/mol
15,AGGTACACGTGTGGGG,0.03 kcal/mol
16,TTAAACACGTGCGGTG,-0.1 kcal/mol
17,GTGATCACGTGTCGTG,0.09 kcal/mol
18,GATTTCACGTGGTATT,0.1 kcal/mol
19,TCTGTCACGTGTTACG,0.14 kcal/mol
20,TTTAGCACGTGCGGGA,-0.07 kcal/mol
21,CAAGGCACGTGGGTGC,-0.1 kcal/mol
